# From PubChem BioAssay AID588342 (National Center for Advancing Translational Sciences (NCATS), 2011)
# Where “and” joins values, the source holds several entries; their conditions need not be identical. Identical values can stand only once. About 25,000 (6.9%) of roughly 360,000 compounds were called active. The shares of active, inactive and inconclusive entries below differ from those in the screen. Calls follow the shape of the dose curve; as a rule, active = well fitted inhibition curve with a large enough effect; inconclusive = small, poorly fitted or top-dose-only effect; inactive = flat fitted curve, though single readings scatter. Potencies of inconclusive entries are doubtful fits and often do not repeat.
# Target: Luciferin 4-monooxygenase (Photinus pyralis) (UniProt P08659)
# Assay: qHTS profiling assay for firefly luciferase inhibitor/activator using purifed enzyme and Km concentrations of substrates (counterscreen for miR-21 project); also: nearly all actives have a fitted effect of over 55% in size;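 as to activity change, negative = inhibition: plate controls were vehicle for no effect and reference inhibitor for full effect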
# Settings: purified FLuc, luminescence inhibition; activity change, negative = inhibition: at 57.5 µM (top of the series)
# Outline: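 Purified P. pyralis luciferase (10nM final) with 10uM D-luciferin and 10uM ATP (Km levels) in 50mM Tris acetate pH 7.5, 10mM Mg acetate, 0.01% Tween-20, 0.05% BSA; qHTS 6-point titration, ~60 µM downward; luminescence read.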
# Potency is read from the fitted curve at half-maximal effect; tags tell the direction and shape of the fitted curve.
# Chain of UniProt P08659 (P08659 whole entry, looked up): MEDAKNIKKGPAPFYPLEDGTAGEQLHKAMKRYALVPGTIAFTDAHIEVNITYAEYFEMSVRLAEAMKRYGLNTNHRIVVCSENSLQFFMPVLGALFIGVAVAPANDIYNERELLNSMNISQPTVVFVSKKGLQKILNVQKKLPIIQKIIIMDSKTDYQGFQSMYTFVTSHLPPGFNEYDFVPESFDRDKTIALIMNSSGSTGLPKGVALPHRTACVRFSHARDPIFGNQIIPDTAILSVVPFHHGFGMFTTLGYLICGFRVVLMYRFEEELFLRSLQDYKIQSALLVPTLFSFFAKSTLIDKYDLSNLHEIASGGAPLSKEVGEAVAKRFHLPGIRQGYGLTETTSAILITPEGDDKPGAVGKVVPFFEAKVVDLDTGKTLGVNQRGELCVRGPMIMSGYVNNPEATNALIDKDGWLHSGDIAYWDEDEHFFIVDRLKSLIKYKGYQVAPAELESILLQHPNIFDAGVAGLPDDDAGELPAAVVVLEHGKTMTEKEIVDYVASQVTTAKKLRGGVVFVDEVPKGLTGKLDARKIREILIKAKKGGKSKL
Structure (SMILES),Potency,"activity change, negative = inhibition"
Cc1ccc(OCc2nc(-c3ccc(Cl)cc3)n[nH]2)cc1,"inconclusive: 15.1 µM [inhibitor, partial curve, poor fit]",
CCc1ccc(NC(=S)NCc2ccccc2)cc1,"inconclusive: 21.3 µM [inhibitor, partial curve]",
O=C(NC(=S)Nc1cccc(O)c1)c1ccco1,active: 10.7 µM,
CCc1ccc(C2(O)CC(C(F)(F)F)=NN2C(=O)Cc2ccc([N+](=O)[O-])cc2)cc1 (stereo not drawn),"inconclusive: 8.49 µM [inhibitor, partial curve, poor fit]",
COc1ccc(NC(=O)c2nc(S(C)(=O)=O)ncc2N(Cc2ccc(C)cc2)Cc2ccco2)cc1Cl,,inactive: -2.18%
COCCCNC(=O)CCCOc1ccccc1,"inconclusive: 23.9 µM [inhibitor, partial curve, poor fit]",
COc1ccc(C(=O)NCCc2ccccc2)cc1OC,"inconclusive: 16.9 µM [inhibitor, partial curve]",
COc1ccc(C)cc1NC(=O)N1CCN(S(=O)(=O)c2ccc3c(ccn3C)c2)CC1,,inactive: -0.972%
Cc1ccc2cc(C)c3nnc(SCC(=O)c4cccs4)n3c2c1C,"inconclusive: 21.3 µM [inhibitor, partial curve, poor fit]",
N#CCc1nn(-c2ccc(F)cc2)c(N)c1C#N,,inactive: -0.812%
O=C(Nc1cccc(/C=C/c2ccccn2)c1)c1ccc(-n2cncn2)c([N+](=O)[O-])c1,active: 23.9 µM,
COC(=O)c1cc(Cl)c(NC(=O)/C=C/c2ccc(OC)cc2)cc1OC,,inactive: 3.62%
CC1CCC(NS(=O)(=O)c2ccc3c(c2)CC(=O)N3)CC1 (stereo not drawn),,inactive: 2.55%
CC(=O)NNc1ncnc2c1cnn2-c1ccc(C)c(Cl)c1,active: 23.9 µM,
CCCNC(=O)CCC(=O)N1Cc2cccc(OC)c2Oc2ncccc21,,inactive: 3.17%
CCCCOC(=O)CSc1nnc(-c2ccc(Cl)cc2Cl)o1,"inconclusive: 26.9 µM [inhibitor, partial curve]",
CCn1c(=O)cc(C(F)(F)F)[nH]c1=S,"inconclusive: 19 µM [inhibitor, partial curve, poor fit]",
O=C(NNC(=O)c1cc(-c2ccccc2)nc2ccccc12)Nc1cccc(Cl)c1,"inconclusive: 37.9 µM [inhibitor, single point]",
O=C1CC(N2CCN(c3ncccn3)CC2)C(=O)N1CCc1ccccc1 (stereo not drawn),"inconclusive: 0.0151 µM [inhibitor, partial curve, poor fit]",
CCCCOC(=O)Nc1cccc(Cl)c1C,"inconclusive: 33.8 µM [inhibitor, single point]",
COc1cc(-c2nc3ccccn3c2NCc2ccccc2)ccc1SC1CCCCC1,"inconclusive: 23.9 µM [inhibitor, partial curve]",
O=C(Nc1ccc2[nH]ncc2c1)c1ccccc1,active: 13.5 µM,
COc1ccccc1C(=O)NNC(=O)c1ccc(C)cc1,active: 15.1 µM,

Structure (SMILES),Potency,"activity change, negative = inhibition"
Cc1ccc(Cn2cccc(NC(=O)NCc3ccccc3)c2=O)cc1,"inconclusive: 2.69 µM [inhibitor, full curve]",
CCN(CC(=O)Nc1ccc(C)c(S(=O)(=O)N(C)C)c1)Cc1ccccc1,"inconclusive: 42.6 µM [inhibitor, partial curve, poor fit]",
CCN(CC(=O)Nc1ccc2c(c1)OCCO2)Cc1nc2cc(Cl)ccc2c(=O)[nH]1,"inconclusive: 37.9 µM [inhibitor, partial curve, poor fit]",
O=C(Nc1ccccc1Cl)ON=C1c2ccccc2-c2ccccc21,"inconclusive: 30.1 µM [inhibitor, partial curve, poor fit]",
Nc1nc(SCC(=O)Nc2cccc(S(=O)(=O)N3CCCCCC3)c2)n[nH]1,active: 16.9 µM,
COc1ccccc1CNc1nc(C)c(C(C)=O)s1,"inconclusive: 23.9 µM [inhibitor, partial curve, poor fit]",
N/C(=N\OC(=O)COc1ccc(Cl)cc1)c1cccnc1,"inconclusive: 37.9 µM [inhibitor, partial curve, poor fit]",
COc1ccc(/C=N/NC(=O)CNc2ccc(Br)cc2)c(C(=O)O)c1OC,"inconclusive: 16.9 µM [inhibitor, partial curve]",
COc1ccc2[nH]c3c(NCCCN4CCCC4=O)ncnc3c2c1,"inconclusive: 33.8 µM [inhibitor, partial curve, poor fit]",
Cc1cc2nc(SC(C)C(=O)O)[nH]c2cc1C (stereo not drawn),active: 21.3 µM,
C[C@H](NC(=O)OCc1ccccc1)C(=O)NNC(=O)[C@H](Cc1ccccc1)NC(=O)OC(C)(C)C,,inactive: 0.415%
O=C(Cc1ccccc1)NC(=S)Nc1ccc2oc(-c3ccccc3)nc2c1,"inconclusive: 15.1 µM [inhibitor, partial curve]",
c1coc(-c2nnc(-c3ccc4c(c3)OCO4)o2)c1,active: 6.75 µM,
CC(=O)c1cccc(NC(=O)CN2C(=O)CCc3cc(S(=O)(=O)N4CCCCC4)ccc32)c1,,inactive: -4.68%
CC(C)Oc1ccc(OCCn2c(S(=O)(=O)O)nc3c(N)ncnc32)cc1,"inconclusive: 26.9 µM [inhibitor, single point]",
CCc1ccc(C(=O)CN2CCSC2=N)cc1,active: 3.01 µM,
NCCSC1CC(=O)N(c2ccc(Cl)c(Cl)c2)C1=O (stereo not drawn),"inconclusive: 23.9 µM [inhibitor, partial curve, poor fit]",
CC(=O)N1CCN(C(=O)c2ccc(-c3ccccc3Cl)o2)CC1,"inconclusive: 26.9 µM [inhibitor, single point]",
N=C1/C(=C\c2ccc(OC(=O)c3ccccc3)cc2)C(=O)N=C2SC(N3CCOCC3)=NN12,"inconclusive: 26.9 µM [inhibitor, single point]",
CCOC(=O)c1cnc(-c2ccccc2)nc1C(F)(F)F,"inconclusive: 16.9 µM [inhibitor, partial curve]",
N#Cc1c(NC(=O)c2cc(-n3cnnc3)ccc2Cl)sc2c1CCCC2,"inconclusive: 37.9 µM [inhibitor, partial curve, poor fit]",
O=C(c1ccc2c(c1)OCCO2)C1CCN(C(=O)Nc2ccc(F)cc2)CC1,"inconclusive: 30.1 µM [inhibitor, partial curve, poor fit]",
Cc1cc(C(=O)NNC(=S)Nc2ccccc2C)cs1,"inconclusive: 21.3 µM [inhibitor, partial curve]",

Structure (SMILES),Potency,"activity change, negative = inhibition"
Cc1cccc(N2CCN(C(=O)c3nn(C)c4c3CS(=O)(=O)c3ccccc3-4)CC2)c1C,"inconclusive: 10.7 µM [inhibitor, partial curve]",
COc1ccc(CNC(=O)c2ccc3c(O)c(S(=O)(=O)c4ccccc4)c(=O)[nH]c3c2)cc1,"inconclusive: 19 µM [inhibitor, partial curve, poor fit]",
O=C(Nc1ccc(Br)cc1)c1csc(-c2ccncc2)n1,"inconclusive: 19 µM [inhibitor, partial curve]",
COc1ccc(NC(=O)c2c(NC(=O)C(F)(F)F)sc3c2CCCCC3)cc1,active: 13.5 µM,
CCN(C(=O)CCc1nc(-c2ccc(C)cc2)no1)c1cccc(C(F)(F)F)c1,,inactive: -7.67%
O=C(O)COc1ccc(/C=N/Nc2nc(Nc3ccccc3)nc(N3CCCCC3)n2)cc1,active: 0.675 µM,
N=c1c(C(=O)NC2CCCCC2)cc2c(=O)n3ccccc3nc2n1Cc1ccco1,,inactive: -1.33%
Cc1ccc(NC(=O)CN(C)S(=O)(=O)c2ccc(Cl)s2)c(O)c1,"inconclusive: 19 µM [inhibitor, partial curve]",
COc1ccc(C(=O)Nc2ccc(S(=O)(=O)Nc3cc(C)nc(C)n3)cc2)cc1,"inconclusive: 37.9 µM [inhibitor, single point] and inconclusive: 21.3 µM [inhibitor, single point]",
COc1ccc2c(c1)Cc1sc(NC(=O)c3cccnc3)nc1-2,"inconclusive: 30.1 µM [inhibitor, single point]",
CN1CCN(c2ccc(NC(=O)c3ccccc3Br)cc2)CC1,"inconclusive: 23.9 µM [inhibitor, partial curve]",
O=C(Cc1ccccc1)Nc1ccc(NC(=O)c2ccco2)cc1,"inconclusive: 23.9 µM [inhibitor, partial curve, poor fit]",
Cc1c(C)n(Cc2ccccc2)c2ccc(C(=O)N3CCN(c4ccc(F)cc4)CC3)cc12,,inactive: -1.15%
CC(C)C[C@@H](CSc1ccc(Br)cc1)N1CCN(CCc2ccccc2)CCC1=O,"inconclusive: 19 µM [inhibitor, partial curve, poor fit]",
COc1cccc(OCc2cc(C(=O)N(C)CCC3CCCCO3)no2)c1 (stereo not drawn),"inconclusive: 30.1 µM [inhibitor, single point]",
Clc1ccc(/C=N/N2CCN(Cc3ccccc3)CC2)cc1,"inconclusive: 21.3 µM [inhibitor, single point]",
CC1CCCCC12NC(=O)N(CC(=O)Nc1ccc(N3CCCCC3)cc1)C2=O (stereo not drawn),"inconclusive: 16.9 µM [inhibitor, partial curve]",
CCCCc1ccc(NC(=S)NCC2CCCO2)cc1 (stereo not drawn),"inconclusive: 26.9 µM [inhibitor, partial curve, poor fit]",
CC(C)(C)C(=O)N1CCc2cc(-c3csc(N)n3)ccc21,active: 0.239 µM,
CCOC(=O)c1cccc(NC(=O)c2cccs2)c1,active: 21.3 µM,
Cc1nn(-c2ccccc2)c(Cl)c1/C=N/NC(=O)c1ccccc1F,active: 8.49 µM,
O=C(O)CCN1C(=O)/C(=C\c2cccc(OCC(=O)Nc3ccc(Cl)cc3)c2)SC1=S,active: 16.9 µM,
